Out of some 52,000 compounds screened, about 4,300 (8.3%) were called active. Rule as the data show it: active = survival mostly below about 52% (no sharp cut-off); inactive = mostly above about 56%. This is one part of the list.
Test system: DeltatarO mutant
Experiment: growth inhibition of S. aureus wild type versus tarO mutant, primary screen, teichoic acid synthesis inhibitors, RN4220, OD600 (AID 463173)
Conditions: OD600, 18 h, stronger effect = lower value, screened at 18.75 µg/mL (by protocol)

Question: Which survival does the source give for `CCCC(=O)Nc1nnc(SCc2cc(=O)n3ccccc3n2)s1` here?
Answer: The survival was inactive: 87%.

Question: With `COc1ccc(C(=O)Nc2ccc3nc(SCC(=O)N4CCCC4)sc3c2)cc1` as the molecule, how does the survival read?
Answer: Its survival is inactive: 79%.

Question: How did the survival turn out when `O=C(NC1CCCCC1)c1ccc2c(c1)N(Cc1ccccc1F)C(=O)c1ccccc1S2` was run?
Answer: The survival was inactive: 79%.

Question: Which survival does the source give for `Cn1c(=O)c(=O)n(C)c2cc(S(=O)(=O)N3CCCC3C(=O)Nc3cccc(F)c3)ccc21` (stereo not given) here?
Answer: The survival was inactive: 100%.

Question: `CCOc1ccc2nc(NCCNC(=O)C(C)(C)C)c(C)cc2c1` was tested. Which survival did it give?
Answer: The survival was inactive: 77%.

Question: `CCOc1ccccc1NC(=O)c1ccc2c(c1)CCN2S(C)(=O)=O` was tested. Which survival did it give?
Answer: The survival was inactive: 75%.

Question: Which survival does the source give for `Cc1cc(N2CCN(C3=NCC(C)(C)S3)CC2)n2c(nc3ccccc32)c1C#N` here?
Answer: Its survival is inactive: 74%.

Question: For `CCn1cc2nc(SCC(=O)Nc3cc(OC)ccc3OC)n(Cc3ccc(Cl)cc3)c(=O)c2n1`, which survival is on record?
Answer: Its survival is inactive: 61%.

Question: With `Cc1ccc(-n2c(SCC(=O)N3CCc4ccccc43)nc3c([nH]c4ccccc43)c2=O)cc1` as the molecule, how does the survival read?
Answer: The survival was inactive: 109%.

Question: How did the survival turn out when `CCOC(=O)c1c(CN(C)C)oc2ccc(O)cc12` was run?
Answer: Its survival is inactive: 88%.

Question: For `O=C(Nc1ccc(OC(F)(F)F)cc1)c1cc2c(=O)n3ccccc3nc2s1`, which survival is on record?
Answer: Its survival is inactive: 87%.

Question: `O=C(O)/C=C/c1ccc(-c2ccccc2)o1` was tested. Which survival did it give?
Answer: The survival was inactive: 92%.

Question: `CCS(=O)(=O)N1CCc2cc(C(=O)Nc3cc([N+](=O)[O-])ccc3C)ccc21` was tested. Which survival did it give?
Answer: The survival was active: 40%.

Question: Which survival does the source give for `CCOc1ccc(CNC(=O)CCC(=O)N2Cc3ccccc3Oc3ncccc32)cc1` here?
Answer: The survival was active: 32%.

Question: With `Cc1ccc(Cn2c(CN3CCC(C(=O)NCc4cccnc4)CC3)cc3ccccc32)cc1` as the molecule, how does the survival read?
Answer: Its survival is inactive: 101%.

Question: `O=C(CSc1nc2ccccc2o1)N=Nc1c(O)[nH]c2ccccc12` was tested. Which survival did it give?
Answer: Its survival is inactive: 71%.

Question: `Cc1cc(-c2ccccc2)nc2cc(C(=O)N3CCCCCC3)nn12` was tested. Which survival did it give?
Answer: The survival was inactive: 90%.

Question: Which survival does the source give for `Cc1ccc(CNC(=O)C2CCN(Cc3nc(-c4ccccc4C)oc3C)CC2)cc1` here?
Answer: The survival was inactive: 87%.

Question: With `CCN(CCN(C)C)C(=O)Cn1ncc2c([nH]c3ccc(C)cc32)c1=O` as the molecule, how does the survival read?
Answer: Its survival is inactive: 88%.

Question: With `Cc1ccn2c(Nc3ccccc3C)c(-c3ccncc3)nc2c1` as the molecule, how does the survival read?
Answer: Its survival is inactive: 85%.

Question: `Cc1cccc(NC(=O)CSc2nnc(CNC(=O)c3cccc(C)c3)n2-c2ccccc2)c1` was tested. Which survival did it give?
Answer: Its survival is inactive: 59%.

Question: `CCCCn1c(CN2CCN(c3ccc(OC)cc3)CC2)nc2c1c(=O)[nH]c(=O)n2C` was tested. Which survival did it give?
Answer: The survival was inactive: 75%.

Question: Which survival does the source give for `COc1ccc(-c2noc(CN(C(=O)c3ccccc3Cl)C(C)C)n2)cc1` here?
Answer: The survival was inactive: 62%.

Question: Which survival does the source give for `Cc1ccccc1Cn1c(-c2cccs2)nc2ccccc21` here?
Answer: Its survival is active: 19%.

Question: How did the survival turn out when `CCOC(=O)N1CCN(Cc2nc3cc(NC(=O)c4ccc(F)cc4)ccc3n2C(C)C)CC1` was run?
Answer: The survival was inactive: 58%.
